Source: the supplement of paper PMC10126150
Values marked as one replicate rest on one cluster of the flow cell; about a third of the high ones do not repeat.

Test system: ATP
Assay: switch fluorescence ratio, 500 uM ATP over buffer (Cy3 cluster intensity, sum of 5 cycles each) (fold (ratio)); higher = stronger signal-on switching upon ATP binding; sequences stand for … in TCGTCGGCAGCGTCAGATGTGTATAAGAGACAGTTTTTTTTTTTTTTTTTTTTTTTTT…TC
Conditions: aptamer strand: ATP DNA aptamer (quencher-CACCTGGGGGAGTATTGCGGAGGAAGG + anchor), 100 nM annealed; ATP concentration: 500 uM; one replicate
Procedure, shortened: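 Between each of five buffer/ATP cycles, the flow-cell was stripped with NaOH and re-annealed. Each cycle imaged Cy3-labelled switching-strand clusters, annealed to 100 nM quencher-labelled ATP aptamer on a modified Illumina MiSeq flow-cell, first in selection buffer and then after 15 min with 500 uM ATP at 22 °C. The fluorescence ratio is summed target-cycle over summed buffer-cycle Cy3 intensity per cluster, averaged per switch-domain sequence, with clusters outside 100-1000 RFU excluded.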
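Also: ATP exposure 15 min at 22 °C before imaging.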

| Sequence | switch fluorescence ratio |
| --- | --- |
| TAAAGAATGT | 0.98 |
| ACCTATAGCC | 1.04 |
| TGGGCCCCAA | 1.04 |
| GACGACTTAT | 1.09 |
| GGTGGAGCGC | 0.969 |
| CGAATGGGGC | 0.994 |
| CTCATGTACA | 1.04 |
| AGCTGCCTCA | 1.11 |
| AAATTGACCT | 1.54 |
| TCGACGGACT | 1.15 |
| CATGGATCG | 0.959 |
| CAGCACTTAA | 1.05 |
| CACGGCTGAG | 0.96 |
| GAGACCGTTA | 1.02 |
| GCGAACAGTC | 1.05 |
| GGGCTGCTAT | 0.942 |
| TGTCAAAAAA | 0.995 |
| GGTTGCACTA | 1.02 |
| AATGCCTCTC | 1 |
| AACAGGGCG | 1.06 |
| TGATCCGGG | 1.01 |
| TGTTTTAAGA | 0.972 |
| TCGTTGCACG | 1.01 |

| Sequence | switch fluorescence ratio |
| --- | --- |
| CTTAATTTCA | 1 |
| TTGGTCTTTA | 0.971 |
| GACATGAAGT | 0.997 |
| AATAGTATTC | 1.02 |
| AGGTTCTGG | 0.969 |
| CAGAAAGCG | 1.05 |
| AGAGATTAGT | 0.975 |
| GACAGCGCGC | 0.944 |
| CTGCGCGAAT | 1.07 |
| GGGAACTGTT | 1.1 |
| TGAGGACTTT | 0.962 |
| TATGCCACGG | 0.998 |
| TCAGAACACT | 1.07 |
| CGCGCCTTAG | 1.02 |
| CTGCACATCA | 1.1 |
| CTTACTCTTC | 0.969 |
| ATTTGACGG | 1.07 |
| GGGAACACTG | 1.01 |
| GTGGCTAGCC | 1.04 |
| GCGAGTGGAA | 1 |
| ACAAAATGGG | 1.01 |
| AGGAAAAGAA | 0.992 |
| CTCTTATCTG | 0.997 |

| Sequence | switch fluorescence ratio |
| --- | --- |
| ATAGCATACA | 1.11 |
| ATTTACGGA | 1.08 |
| CAGCAATTGC | 1.15 |
| AAGGTGTCCC | 0.967 |
| TGGAGGTATT | 1.23 |
| ACTCTAGAC | 1.2 |
| GCCTCTGACG | 1.06 |
| AGGCTAAAAT | 0.932 |
| CTTCGTGTAA | 1.12 |
| TGGTATTGAC | 1.05 |
| GCTGGCCTCC | 1.03 |
| CCGAAATCAG | 1.68 |
| ATAACTGAG | 1.07 |
| CAAATATAC | 1.41 |
| GCTCTATCAG | 1.01 |
| GATAGTTGGA | 0.981 |
| ATGATCTAAC | 1.04 |
| ACGCACAGGA | 1.24 |
| GAGGTTCTTG | 0.98 |
| CCCCGAGTCT | 1.27 |
| GATCTGTCTT | 0.998 |
| GGCCGAATCG | 1.01 |
| TATCGCAGCC | 1.15 |

| Sequence | switch fluorescence ratio |
| --- | --- |
| CGTGCAGTGG | 1.02 |
| TCTTTTCTTG | 1.02 |
| AGCTGAACCA | 1.01 |
| AGAGAGATCG | 1.03 |
| CGTGTACCGA | 0.992 |
| AGAAAATAAA | 1.05 |
| TTAGGCCG | 0.942 |
| TGGTCCACCT | 1.07 |
| ACCATGGAAT | 1.01 |
| CGTGCGTCTC | 1.02 |
| TCATGGGAGT | 1 |
| CCACTACACT | 1.27 |
| GATGAGCGTA | 1.03 |
| GTTGCTGTTG | 0.948 |
| TTGATGGCAG | 1.02 |
| CCTGATAGGG | 0.972 |
| CCCAGAACGT | 1.02 |
| TCCTGATCGG | 0.997 |
| TGGGCACGGG | 1.02 |
| ACTCGGGGTA | 0.99 |
| GAGCCAGGGT | 1.03 |
| TTCCAGTCCG | 1.03 |
| GCAGCGGCCG | 1.02 |

| Sequence | switch fluorescence ratio |
| --- | --- |
| GCGCCCAGTG | 3.4 |
| TGACTAGGAC | 1.1 |
| GACCACTA | 1.21 |
| GCATGTATCG | 0.976 |
| AATTCCACTT | 1.03 |
| ATTGTGATAC | 1.32 |
| CATCTTTACT | 1.01 |
| AACGCCGCTT | 1.26 |
| TTTTTAAGC | 0.982 |
| CGGGTATTGA | 1 |
| CTCATAGTCA | 0.991 |
| GAATATTACT | 0.988 |
| AAACATTTTA | 1.03 |
| CCGTCTAGTC | 1.25 |
| TCATATGGGT | 0.975 |
| AATAGACCCA | 1.02 |
| GAAGTAGATT | 0.994 |
| ACGGCGAGGA | 1.07 |
| GTACCGTGCC | 1.36 |
| GCTAACCGGT | 0.983 |
| TACCAGTATG | 0.971 |
| CTATTCAACC | 0.968 |
| ACCGTCGCCG | 1.02 |

| Sequence | switch fluorescence ratio |
| --- | --- |
| AAGATCCCTG | 0.972 |
| ATATAAGTA | 0.925 |
| TGGCACGGAC | 1.37 |
| ATTGTGTCAT | 1.04 |
| ACTCGGTCC | 1.07 |
| CCTACTTAGA | 1.1 |
| AACGGTCTCG | 1.02 |
| ACGCCCGTA | 1.06 |
| CATGAGTGCT | 1.01 |
| CACCCGCGTT | 1.85 |
| TCAATCTGAG | 1.03 |
| GGTGTCCAAG | 0.972 |
| GGCCCCAGGG | 1.44 |
| CGATGACAAG | 0.995 |
| CTGTAAATGT | 1.04 |
| AGTCAGTTTC | 1.01 |
| GCCCCGAATT | 0.977 |
| GCTTGGTTAT | 1.03 |
| ATAAGCTAGC | 1.02 |
| TAGAGATGT | 0.978 |
| ACTGGGAGAT | 1.02 |
| GCACCTATCC | 1.66 |
| GTTAGGATCG | 1.02 |

| Sequence | switch fluorescence ratio |
| --- | --- |
| GACTCCATAT | 1.25 |
| TTCCAGATGT | 1.05 |
| ACGTGTATCT | 1.05 |
| GGGACAAAA | 0.994 |
| GACATATAGG | 0.835 |
| CATCGATCAC | 1.01 |
| TCTAACATTA | 1 |
| AGTTTATGTA | 0.991 |
| GTGATGACCC | 1.02 |
| GTTCCCATCA | 0.984 |
| TCTTTATTCT | 0.997 |
| TCCCGGCGGT | 1.22 |
| TGAAGAGCGT | 1.04 |
| GAATTTTCTC | 1.03 |
| GCCAACGCTC | 1.53 |
| AGGGGCCACA | 0.978 |
| CATGAGGCCT | 1 |
| TTCCAGGCAT | 1.04 |
| TACTGGCTT | 1.05 |
| TAGGGAGGC | 0.927 |
